# This is one part of the list.
# B1: Cohesin-mDCIR (Macaca mulatta) (protein)
# chain: GLDDLDAVRIKVDTVNAKPGDTVRIPVRFSGIPSKGIANCDFVYSYDPNVLEIIEIEPGDIIVDPNPDKSFDTAVYPDRKIIVFLFAEDSGTGAYAITKDGVFATIVAKVKEGAPNGLSVIKFVEVGGFANNDLVEQKTQFFDGGVNVGDTTEPATPTTPVTTPTTTDDLDAASFQKYSQLLEKMTTKDLVHTTLECVKKNMTTEETAWSCCPKNWKPFSSNCYFISTESASWQKSEKDCARMEAHLLVINTREEQDFIFQNLQEESAYFVGLSDPEGQRHWQWVDRTPYNESSTFWHPHEPSDPDERCVVLNFRKTPKRWGWNDVHCIVHQRSVCEMMKIHLHHHHHH
# Experiments:
# Assay in all cases: glycan array binding signal (z-score within array); higher = stronger binding
# Conditions in all cases: glycan notation: IUPAC condensed, linker removed
# Neu5Ac(a2-3)Gal(b1-4)Glc = target: Neu5Ac(a2-3)Gal(b1-4)Glc
# In short: (§1)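 Glycan array binding is given as a within-array Z-score, which can be read as non-binding when negative. The arrays, 3228 of them, came from the Consortium for Functional Glycomics database and were retained only where the protein sequence was available. Z-scores were averaged across arrays of the same protein sequence at different concentrations or buffers and across linkers.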
# [1] = target: Neu5Ac(a2-3)Gal(b1-4)GlcNAc
# In short: as §1
# [2] = target: Neu5Ac(a2-3)Gal(b1-4)GlcNAc(b1-2)Man
# In short: as §1
# [3] = target: Neu5Ac(a2-3)Gal(b1-4)GlcNAc(b1-2)Man(a1-3)[GlcNAc(b1-4)][Neu5Ac(a2-3)Gal(b1-4)GlcNAc(b1-2)Man(a1-6)]Man(b1-4)GlcNAc(b1-4)GlcNAc
# In short: as §1
# [4] = target: Neu5Ac(a2-3)Gal(b1-4)GlcNAc(b1-2)Man(a1-3)[Neu5Ac(a2-3)Gal(b1-4)GlcNAc(b1-2)Man(a1-6)]Man(b1-4)GlcNAc(b1-4)GlcNAc
# In short: as §1
# [5] = target: Neu5Ac(a2-3)Gal(b1-4)GlcNAc(b1-2)Man(a1-3)[Neu5Ac(a2-3)Gal(b1-4)GlcNAc(b1-2)Man(a1-6)]Man(b1-4)GlcNAc(b1-4)[Fuc(a1-6)]GlcNAc
# In short: as §1
# [6] = target: Neu5Ac(a2-3)Gal(b1-4)GlcNAc(b1-2)Man(a1-3)[Neu5Ac(a2-6)Gal(b1-4)GlcNAc(b1-2)Man(a1-6)]Man(b1-4)GlcNAc(b1-4)GlcNAc
# In short: as §1
# [7] = target: Neu5Ac(a2-3)Gal(b1-4)GlcNAc(b1-2)[Neu5Ac(a2-3)Gal(b1-4)GlcNAc(b1-4)]Man(a1-3)[GlcNAc(b1-4)][Neu5Ac(a2-3)Gal(b1-4)GlcNAc(b1-2)[Neu5Ac(a2-3)Gal(b1-4)GlcNAc(b1-6)]Man(a1-6)]Man(b1-4)GlcNAc(b1-4)GlcNAc
# In short: as §1
# [8] = target: Neu5Ac(a2-3)Gal(b1-4)GlcNAc(b1-2)[Neu5Ac(a2-3)Gal(b1-4)GlcNAc(b1-4)]Man(a1-3)[GlcNAc(b1-4)][Neu5Ac(a2-3)Gal(b1-4)GlcNAc(b1-4)Man(a1-6)]Man(b1-4)GlcNAc(b1-4)GlcNAc
# In short: as §1
# [9] = target: Neu5Ac(a2-3)Gal(b1-4)GlcNAc(b1-2)[Neu5Ac(a2-3)Gal(b1-4)GlcNAc(b1-6)]Man(a1-6)[Neu5Ac(a2-3)Gal(b1-4)GlcNAc(b1-2)Man(a1-3)]Man(b1-4)GlcNAc(b1-4)GlcNAc
# In short: as §1
# [10] = target: Neu5Ac(a2-3)Gal(b1-4)GlcNAc(b1-2)[Neu5Ac(a2-3)Gal(b1-4)GlcNAc(b1-6)]Man(a1-6)[Neu5Ac(a2-3)Gal(b1-4)GlcNAc(b1-2)Man(a1-3)][GlcNAc(b1-4)]Man(b1-4)GlcNAc(b1-4)GlcNAc
# In short: as §1
# [11] = target: Neu5Ac(a2-3)Gal(b1-4)GlcNAc(b1-3)Gal
# In short: as §1
# [12] = target: Neu5Ac(a2-3)Gal(b1-4)GlcNAc(b1-3)Gal(b1-3)GlcNAc
# In short: as §1
# [13] = target: Neu5Ac(a2-3)Gal(b1-4)GlcNAc(b1-3)Gal(b1-4)GlcNAc
# In short: as §1
# [14] = target: Neu5Ac(a2-3)Gal(b1-4)GlcNAc(b1-3)Gal(b1-4)GlcNAc(b1-2)Man(a1-3)[Neu5Ac(a2-3)Gal(b1-4)GlcNAc(b1-3)Gal(b1-4)GlcNAc(b1-2)Man(a1-6)]Man(b1-4)GlcNAc(b1-4)GlcNAc
# In short: as §1
# [15] = target: Neu5Ac(a2-3)Gal(b1-4)GlcNAc(b1-3)Gal(b1-4)GlcNAc(b1-3)Gal(b1-4)GlcNAc
# In short: as §1
# [16] = target: Neu5Ac(a2-3)Gal(b1-4)GlcNAc(b1-3)Gal(b1-4)GlcNAc(b1-3)Gal(b1-4)GlcNAc(b1-2)Man(a1-3)[Neu5Ac(a2-3)Gal(b1-4)GlcNAc(b1-3)Gal(b1-4)GlcNAc(b1-3)Gal(b1-4)GlcNAc(b1-2)Man(a1-6)]GalNAc
# In short: as §1
# [17] = target: Neu5Ac(a2-3)Gal(b1-4)GlcNAc(b1-3)Gal(b1-4)GlcNAc(b1-3)GalNAc
# In short: as §1
# [18] = target: Neu5Ac(a2-3)Gal(b1-4)GlcNAc(b1-3)Gal(b1-4)GlcNAc(b1-3)[Neu5Ac(a2-3)Gal(b1-4)GlcNAc(b1-3)Gal(b1-4)GlcNAc(b1-6)]GalNAc
# In short: as §1
# [19] = target: Neu5Ac(a2-3)Gal(b1-4)GlcNAc(b1-3)Gal(b1-4)GlcNAc(b1-6)[Gal(b1-3)]GalNAc
# In short: as §1
# [20] = target: Neu5Ac(a2-3)Gal(b1-4)GlcNAc(b1-3)Gal(b1-4)[Fuc(a1-3)]GlcNAc
# In short: as §1
# [21] = target: Neu5Ac(a2-3)Gal(b1-4)GlcNAc(b1-3)GalNAc
# In short: as §1
# [22] = target: Neu5Ac(a2-3)Gal(b1-4)GlcNAc(b1-3)[Neu5Ac(a2-3)Gal(b1-4)GlcNAc(b1-6)]GalNAc
# In short: as §1
# [23] = target: Neu5Ac(a2-3)Gal(b1-4)GlcNAc(b1-6)GalNAc
# In short: as §1
# [24] = target: Neu5Ac(a2-3)Gal(b1-4)GlcNAc(b1-6)[Gal(b1-3)]GalNAc
# In short: as §1
# [25] = target: Neu5Ac(a2-3)Gal(b1-4)GlcNAc(b1-6)[Neu5Ac(a2-3)Gal(b1-3)]GalNAc
# In short: as §1
# [26] = target: Neu5Ac(a2-3)Gal(b1-4)GlcNAc6S
# In short: as §1
# [27] = target: Neu5Ac(a2-3)Gal(b1-4)[Fuc(a1-3)]GlcNAc
# In short: as §1
# [28] = target: Neu5Ac(a2-3)Gal(b1-4)[Fuc(a1-3)]GlcNAc(b1-2)Man
# In short: as §1
# [29] = target: Neu5Ac(a2-3)Gal(b1-4)[Fuc(a1-3)]GlcNAc(b1-3)Gal
# In short: as §1
# [30] = target: Neu5Ac(a2-3)Gal(b1-4)[Fuc(a1-3)]GlcNAc(b1-3)Gal(b1-4)GlcNAc
# In short: as §1
# [31] = target: Neu5Ac(a2-3)Gal(b1-4)[Fuc(a1-3)]GlcNAc(b1-3)Gal(b1-4)[Fuc(a1-3)]GlcNAc(b1-3)Gal(b1-4)[Fuc(a1-3)]GlcNAc
# In short: as §1
# [32] = target: Neu5Ac(a2-3)Gal(b1-4)[Fuc(a1-3)]GlcNAc(b1-3)GalNAc
# In short: as §1
# [33] = target: Neu5Ac(a2-3)Gal(b1-4)[Fuc(a1-3)]GlcNAc(b1-6)[Gal(b1-3)]GalNAc
# In short: as §1
# [34] = target: Neu5Ac(a2-3)Gal(b1-4)[Fuc(a1-3)]GlcNAc(b1-6)[Neu5Ac(a2-3)Gal(b1-3)]GalNAc
# In short: as §1
# [35] = target: Neu5Ac(a2-3)Gal(b1-4)[Fuc(a1-3)]GlcNAc6S
# In short: as §1
# [36] = target: Neu5Ac(a2-3)Gal6S(b1-4)GlcNAc
# In short: as §1
# [37] = target: Neu5Ac(a2-3)Gal6S(b1-4)[Fuc(a1-3)]GlcNAc
# In short: as §1
binder,measurement,setting,value
B1,glycan array binding signal (z-score),Neu5Ac(a2-3)Gal(b1-4)Glc,-0.444
same,glycan array binding signal (z-score),[1],-0.267
same,glycan array binding signal (z-score),[2],0.033
same,glycan array binding signal (z-score),[3],-0.429
same,glycan array binding signal (z-score),[4],-0.286
same,glycan array binding signal (z-score),[5],-0.364
same,glycan array binding signal (z-score),[6],-0.238
same,glycan array binding signal (z-score),[7],-0.171
same,glycan array binding signal (z-score),[8],-0.234
same,glycan array binding signal (z-score),[9],-0.05
same,glycan array binding signal (z-score),[10],-0.45
same,glycan array binding signal (z-score),[11],-0.377
same,glycan array binding signal (z-score),[12],-0.424
same,glycan array binding signal (z-score),[13],-0.175
same,glycan array binding signal (z-score),[14],-0.33
same,glycan array binding signal (z-score),[15],-0.241
same,glycan array binding signal (z-score),[16],-0.191
same,glycan array binding signal (z-score),[17],0.175
same,glycan array binding signal (z-score),[18],-0.333
same,glycan array binding signal (z-score),[19],-0.416
same,glycan array binding signal (z-score),[20],-0.47
same,glycan array binding signal (z-score),[21],-0.264
same,glycan array binding signal (z-score),[22],-0.458
same,glycan array binding signal (z-score),[23],1.08
same,glycan array binding signal (z-score),[24],-0.381
same,glycan array binding signal (z-score),[25],-0.475
same,glycan array binding signal (z-score),[26],-0.281
same,glycan array binding signal (z-score),[27],-0.35
same,glycan array binding signal (z-score),[28],-0.354
same,glycan array binding signal (z-score),[29],-0.387
same,glycan array binding signal (z-score),[30],-0.286
same,glycan array binding signal (z-score),[31],-0.409
same,glycan array binding signal (z-score),[32],-0.091
same,glycan array binding signal (z-score),[33],-0.232
same,glycan array binding signal (z-score),[34],-0.363
same,glycan array binding signal (z-score),[35],-0.425
same,glycan array binding signal (z-score),[36],-0.433
same,glycan array binding signal (z-score),[37],-0.246

# Reference: the supplement of paper PMC8728848
